Experimental data published in the supplement of paper PMC3334620.
The full ranking holds about 33,000 sequences; the median of “E-score (-0.5 to 0.5)” is about -0.04, and the highest 2% start at about 0.36. Some of the results follow.

Each sequence was assayed against T1, Hmlalpha2 (UniProt P0CY09) (assay: PBM E-score (8-mer binding enrichment) (E-score (-0.5 to 0.5)); higher = stronger / more preferred TF binding; most listed sequences are background and not binding sites). Conditions: protein concentration: 200 nM; construct: GST-full length.
T1 sequence: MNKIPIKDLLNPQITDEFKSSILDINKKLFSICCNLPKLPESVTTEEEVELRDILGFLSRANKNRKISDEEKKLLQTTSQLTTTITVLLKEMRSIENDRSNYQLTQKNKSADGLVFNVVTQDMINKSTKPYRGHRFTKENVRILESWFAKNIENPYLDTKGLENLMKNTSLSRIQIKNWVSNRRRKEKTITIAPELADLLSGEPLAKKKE
Method in brief: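 Each ungapped eight-base word and its reverse complement, pooled, received an E-score from the Universal PBM Analysis Suite. Underlying scans, normalised with masliner, recorded fluorescent anti-GST bound to GST-tagged yeast transcription factors. These were applied at about 100-200 nM to universal all-10-mer Agilent arrays double-stranded by primer extension.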

| Sequence | PBM E-score |
| --- | --- |
| GGAACGAA | -0.0762 |
| CGATTAGC | -0.0638 |
| AACGGATC | 0.116 |
| ATCATTCA | 0.113 |
| CGCTAGAG | -0.227 |
| GCTGCAGC | -0.305 |
| TAAGGTAA | 0.132 |
| GCGGATTA | -0.0224 |
| CGGGTTAC | 0.0302 |
| ACTTTGCT | 0.0124 |
| CCCGCGTC | -0.0309 |
| TCCTTTAA | -0.023 |
| GAGTAGCC | -0.305 |
| CGAGTGAC | -0.274 |
| CCGCGAGC | -0.348 |
| GCGTTACC | -0.0424 |
| AATGTGCC | -0.191 |
| GGGAGACA | -0.0526 |
| GTGTCGCA | 0.0153 |
| GCGACACA | 0.00146 |
| CACCAGTC | -0.173 |
| ATCGTAGG | -0.0603 |
| ATATAATG | 0.226 |
| ACTGTGGG | -0.0995 |
| AGATTGCA | 0.0357 |

| Sequence | PBM E-score |
| --- | --- |
| CCGGGCAA | -0.286 |
| CGTAGATA | 0.232 |
| AGTGAAGC | -0.182 |
| AAGGGGGC | -0.251 |
| AAATCTGG | -0.125 |
| AGCTGAAC | -0.157 |
| GGTAAACA | 0.333 |
| AAAGCATC | 0.0202 |
| TACTCGAA | 0.145 |
| AAGTAAGG | 0.007 |
| AGTTCCCC | -0.205 |
| AATCGACC | -0.126 |
| GTGATCAC | -0.229 |
| ATGGGGAA | -0.121 |
| GCCCCTCC | -0.277 |
| AATGGGTA | 0.184 |
| CCCAGTAC | -0.155 |
| CCTGCATA | -0.171 |
| AGGACTTA | -0.168 |
| AACGGTAT | -0.0341 |
| CGCACAGC | -0.0502 |
| CGCGGATC | -0.268 |
| GACTAAAC | -0.0435 |
| CAAGCGTG | 0.13 |
| TCTATACA | 0.209 |

| Sequence | PBM E-score |
| --- | --- |
| GAAAGATA | 0.00594 |
| GGTGGCCA | -0.251 |
| AATCCGAC | -0.00527 |
| AGTGGGCG | -0.0157 |
| CGTACTAA | 0.244 |
| CTGTACTC | -0.175 |
| CGACTGAA | -0.261 |
| ACCCCCCA | -0.207 |
| CGCTCCGA | -0.164 |
| ACGCTTCC | -0.0123 |
| ACAATGGA | 0.122 |
| CGATTAGA | 0.041 |
| GGTACCTA | -0.0174 |
| AGACTAGG | -0.258 |
| AACCTCGT | 0.133 |
| ATCTTAGG | -0.215 |
| CCCACAGA | -0.103 |
| GTGGTGGA | -0.0615 |
| CGGATAGA | -0.0391 |
| ATCAGATA | -0.0109 |
| GCCCAGCA | -0.202 |
| CAGAGACG | -0.083 |
| AGTGAGAG | -0.0314 |
| ACTACCAA | 0.0425 |
| AGATAACC | -0.221 |

| Sequence | PBM E-score |
| --- | --- |
| ACCGCGGA | -0.151 |
| AGGAAGAA | -0.122 |
| AGCTTTAC | 0.19 |
| ACGGGGAC | -0.273 |
| GAAAGAAC | 0.0333 |
| CGTTGACA | 0.247 |
| CTTGGCAC | -0.0576 |
| GCCAGAAC | -0.0733 |
| ACGTTTGA | -0.00079 |
| ATATAGCC | 0.0755 |
| CGGGTAGC | -0.251 |
| CTTGGCCA | -0.15 |
| ATCTTCCA | 0.0369 |
| ATATCTAC | 0.136 |
| GCCTGTAA | 0.254 |
| CGGTTGTC | 0.0856 |
| GCGACTAA | 0.0525 |
| ATTACCTA | 0.282 |
| CCCAGGCC | -0.227 |
| AGCTCGAC | -0.0133 |
| AGTTATAG | 0.182 |
| GATGGGTA | -0.052 |
| AAAGTGGC | -0.206 |
| AATAATCG | 0.168 |
| ATCAGGTC | 0.00309 |

| Sequence | PBM E-score |
| --- | --- |
| GCTCATAA | -0.0832 |
| AGTGTCCC | -0.152 |
| CACCAGCC | -0.231 |
| CTTTGACA | 0.247 |
| ACGGATAC | 0.0886 |
| TATAGCGA | -0.104 |
| GGGCCATA | -0.105 |
| CTTCGCAA | 0.0143 |
| TCTCTTAA | 0.138 |
| AAACATGA | 0.388 |
| ACCGGTAG | -0.287 |
| GGCCTGGA | -0.281 |
| CACAAGTC | -0.141 |
| CCGTCCCA | -0.196 |
| ATGATAAT | 0.185 |
| ATGCTCGA | -0.059 |
| AGTGTGGC | -0.157 |
| ATGTGGCC | -0.173 |
| CATTCCAG | -0.107 |
| GGAACCCA | -0.0867 |
| CCTTCGCG | -0.175 |
| CATTATGG | -0.2 |
| CGCATGGA | -0.0665 |
| ATCTTGTC | 0.133 |
| CATTGTTA | 0.241 |

| Sequence | PBM E-score |
| --- | --- |
| CTAACCGA | -0.0476 |
| CTCTCTGA | -0.261 |
| AGGATTGA | 0.0479 |
| CTGGGCGC | -0.268 |
| ACCCAATC | -0.25 |
| AGAACCAA | -0.0821 |
| GACTGGCA | -0.238 |
| AGCAATCG | 0.108 |
| CAATTGGG | -0.286 |
| GAGTGATA | -0.0114 |
| AACGCCAA | 0.068 |
| CCCGCTCA | -0.322 |
| ATGGCCGG | -0.236 |
| AGAAGGAG | -0.23 |
| CGCTATGC | -0.00943 |
| GATATATA | 0.172 |
| TGCTCTAA | -0.134 |
| AGGCGCAG | -0.306 |
| AGGGAAAT | -0.162 |
| CGGCAACC | -0.299 |
| ACTACTTC | -0.121 |
| CAGTCTAC | -0.0874 |
| GACCGCTA | -0.201 |
| TAACATAA | 0.422 |
| GGTATAAA | -0.0572 |

| Sequence | PBM E-score |
| --- | --- |
| CCTTCATC | -0.227 |
| GAATGCTA | -0.186 |
| GGCTTCTA | -0.115 |
| ACACCACC | -0.0537 |
| GCCATTCC | -0.185 |
| ATTCTGTG | 0.0603 |
| GGACTCGA | -0.17 |
| CGAAGCTC | -0.151 |
| TACCACGA | 0.0931 |
| ATACGGTC | -0.0524 |
| ATTGGTTC | 0.1 |
| ATTGCGCA | -0.118 |
| CGGAATGA | -0.0672 |
| ATGCAGCC | 0.0506 |
| AGACAGAG | 0.0357 |
| AAGCGAGG | -0.289 |
| CGACACAC | 0.231 |
| GATCGAGA | 0.0694 |
| CAAAACCG | -0.0442 |
| ATGAGCTG | -0.164 |
| AGCACTAC | 0.0103 |
| ATGTGTAC | 0.372 |
